# Article PMC4336329 (PLoS ONE, 2015)
# In all, about 310,000 compounds went through this assay and about 2,200 (0.71%) showed an effect of 50% or more. The effect is printed as a negative number. Some of the results follow.
# Target: human ether-à-go-go-related gene (hERG) potassium channel (human, UniProt Q12809)
# Experiment: primary screen, population patch clamp on CHO cells stably expressing hERG
# Sequence of human ether-à-go-go-related gene (hERG) potassium channel (Q12809 whole entry, looked up): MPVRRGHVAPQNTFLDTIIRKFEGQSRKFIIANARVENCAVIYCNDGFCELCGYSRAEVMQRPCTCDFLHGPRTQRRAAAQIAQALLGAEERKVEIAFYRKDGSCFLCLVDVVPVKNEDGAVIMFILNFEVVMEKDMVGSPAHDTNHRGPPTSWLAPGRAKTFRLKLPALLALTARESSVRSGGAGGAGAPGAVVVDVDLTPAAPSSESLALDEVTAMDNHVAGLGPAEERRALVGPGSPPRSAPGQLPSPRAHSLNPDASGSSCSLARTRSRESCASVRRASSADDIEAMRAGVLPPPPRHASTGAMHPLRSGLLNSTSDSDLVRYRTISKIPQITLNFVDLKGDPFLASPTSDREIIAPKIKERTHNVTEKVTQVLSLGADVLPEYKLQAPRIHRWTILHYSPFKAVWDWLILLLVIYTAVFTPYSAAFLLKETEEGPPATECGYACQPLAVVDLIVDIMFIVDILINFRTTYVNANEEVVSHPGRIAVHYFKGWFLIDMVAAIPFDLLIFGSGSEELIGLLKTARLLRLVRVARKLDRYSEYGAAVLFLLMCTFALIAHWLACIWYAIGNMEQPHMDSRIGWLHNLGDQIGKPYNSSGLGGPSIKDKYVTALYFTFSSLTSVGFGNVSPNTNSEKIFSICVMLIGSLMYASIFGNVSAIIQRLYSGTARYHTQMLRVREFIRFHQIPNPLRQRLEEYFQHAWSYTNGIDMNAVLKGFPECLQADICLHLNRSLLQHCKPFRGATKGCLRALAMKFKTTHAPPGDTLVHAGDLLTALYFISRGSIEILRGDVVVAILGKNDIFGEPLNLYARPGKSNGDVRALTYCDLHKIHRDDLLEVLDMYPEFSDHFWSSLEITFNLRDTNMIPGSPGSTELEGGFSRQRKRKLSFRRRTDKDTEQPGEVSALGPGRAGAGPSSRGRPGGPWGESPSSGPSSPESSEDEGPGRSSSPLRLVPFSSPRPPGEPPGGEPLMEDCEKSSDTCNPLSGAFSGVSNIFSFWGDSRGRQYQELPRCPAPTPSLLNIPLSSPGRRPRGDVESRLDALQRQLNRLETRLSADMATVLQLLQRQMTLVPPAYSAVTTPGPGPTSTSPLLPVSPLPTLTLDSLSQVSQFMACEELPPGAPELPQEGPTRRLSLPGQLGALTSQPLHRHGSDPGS
row,Compound,"hERG current change (%, negative = inhibition) at 1uM"
1,CCc1noc(C)c1C(=O)Nc1cc(Cl)ccc1N1CCOCC1,-4.33%
2,Clc1ccc2c(NCc3cccs3)ncnc2c1,12.6%
3,CCCNc1c(NS(=O)(=O)c2ccc(Br)cc2)c(=O)oc2ccccc12,-9.71%
4,Cc1nonc1NC(=O)N1CCCC1,-14.4%
5,COc1ccc(C(=O)CC(=O)C(=O)Nc2ccc(C)c(C)c2)cc1,-3.98%
6,CCN(CC)CCCNC(=O)CSc1nc(-c2cccs2)cc(C(F)(F)F)n1,1.86%
7,O=C(N/N=C/c1ccc(N2CCOCC2)cc1)c1ccc(O)cc1,15.9%
8,C=CCN(CC=C)CCCOc1ccccc1C(=O)OC.O=C(O)C(=O)O,-48.9%
9,CCCOc1ccc(NC(=O)c2c(-c3ccccc3)noc2C)cc1,-6.18%
10,O=C(c1cccnc1)N1CCN(S(=O)(=O)c2ccc(Cl)cc2)CC1,1.21%
11,O=C(NCCc1ccccc1)c1ccccc1SCC(=O)N1CCCC1,-27.3%
12,COc1ccc(C(=O)NCCN2CCCC2)cc1OC.Cl,2.79%
13,Cc1ccc2cc(CCNC(=O)c3c(-c4ccccc4Cl)noc3C)c(=O)[nH]c2c1,-3.85%
14,COc1ccc(/C=N/N2C(=O)C3C4C=CC(CC4)C3C2=O)c(OC)c1 (centres unmarked),2.62%
15,COc1ccc2cc3cc(C(=O)NCc4ccc5c(c4)OCO5)oc3nc2c1,5.52%
16,COc1cc(C(=O)NCCCN2CCCC2=O)cc(OC)c1OC,-2.13%
17,O=C(NCCCNC(=O)c1cnccn1)c1ccc(Cl)c(Cl)c1,4.02%
18,CC(C)(C)c1ccc(Cn2nc(CC(=O)O)c3ccccc3c2=O)cc1,18%
19,CN(C)C(=O)N1CCC(C(=O)NCc2ccc(F)cc2Cl)CC1,12.7%

row,Compound,"hERG current change (%, negative = inhibition) at 1uM"
1,COC(=O)c1c(NC(=O)CN2CCN(c3ccccc3Cl)CC2)sc(C)c1C,1.85%
2,Cc1cccc(C2c3[nH]c4ccccc4c3CCN2Cc2cnn(-c3ccc(F)cc3)c2)n1 (centres unmarked),12.2%
3,OC1=C(O)c2nc3cc(C(F)(F)F)ccc3nc21,1.28%
4,Cc1ccccc1NS(=O)(=O)c1cc2c3c(c1)CC(=O)N3CCC2,7.86%
5,OC(COC(c1ccccc1)c1ccccc1)CN1CCc2ccccc2C1 (centres unmarked),-75.3%
6,Cc1ccccc1N1CC(C(=O)Nc2ccncc2)CC1=O (centres unmarked),1.72%
7,Cc1oc(-c2ccccc2F)nc1CS(=O)CC(=O)NCc1cccs1 (centres unmarked),6.87%
8,O=C(CCN1C(=O)/C(=C\c2ccc(F)cc2)SC1=S)Nc1ccccc1,6.78%
9,CCC(C(=O)NNC(=O)c1cnccn1)c1ccccc1 (centres unmarked),11.4%
10,O=C(Cc1ccc(NC2=NC3CS(=O)(=O)CC3S2)cc1)N1CCN(c2ccc(F)cc2)CC1 (centres unmarked),15.8%
11,CC(=O)C1=C(O)C(=O)N(Cc2ccccc2)C1c1ccc(N(C)C)cc1 (centres unmarked),16.1%
12,Cc1cc(C)c(C(=O)COC(=O)c2cc([N+](=O)[O-])ccc2NCCO)cc1C,1.03%
13,CC(C)N(C(=O)COC(=O)c1ccc(Cl)c(S(N)(=O)=O)c1)C(C)C,10.8%
14,Cc1cc(CNC(=O)c2cccc([N+](=O)[O-])c2C)c2ccccc2n1,-24.3%
15,Cc1cc(-c2nn(C)c(=O)c3ccccc23)cc(C)c1O,7.52%
16,CCOC(=O)NN1C(=O)c2ccccc2NC1c1ccc(OC)cc1OC (centres unmarked),10.2%
17,O=C(Nc1ccc([N+](=O)[O-])cn1)c1cc(-c2cccc(Br)c2)nc2ccccc12,12.3%
18,C=CCn1c(SCc2ccccc2F)nc2cc(C(=O)O)ccc2c1=O,23.8%
19,CCN(Cc1ccncc1)S(=O)(=O)c1ccc(C(C)=O)cc1,-5.85%

row,Compound,"hERG current change (%, negative = inhibition) at 1uM"
1,CC(C)Nc1nc(SC(C)C(=O)Nc2ccccc2)nc(N(C)C)n1 (centres unmarked),-7.07%
2,O=c1c2c3c(sc2ncn1/N=C/c1ccc(Br)o1)CCCC3,1.4%
3,CCO[C@@H]1OC(C(=O)NC2CC2)=C[C@H](C2CC2)[C@H]1CCCO,11.3%
4,Cc1csc(SCC(=O)N(C)CC(=O)Nc2ccc(F)cc2)n1,9.45%
5,N#Cc1ccc(CNc2cnccn2)cc1,-5.84%
6,O=C(c1ccccc1F)N1CCN(c2ccc([N+](=O)[O-])c(NCc3cccnc3)c2)CC1,7.94%
7,CCCc1nc2oc3c(OC)ncnc3c2c2c1COC(C)(C)C2,11.1%
8,COc1cc(/C=C/C(=O)OCC(=O)NCC2CCCO2)ccc1OCC#N (centres unmarked),9.6%
9,COc1cc2[nH]c(=O)n(Cc3ccc(C(=O)NCCCN4CCN(C)CC4)cc3)c(=O)c2cc1OC,0.861%
10,O=C(CSc1nc(-c2ccccc2)cs1)Nc1cccc([N+](=O)[O-])c1,11.1%
11,CC(O)c1nc2ccccc2n1Cc1ccccc1 (centres unmarked),8.76%
12,COc1cc(OC)c2c(c1)OC(c1ccc(OC)c(OC)c1)C(O)C2=O (centres unmarked),11.7%
13,COc1ccc(CN2C(=O)C(CC(C)C)Nc3ncnc(N4CCN(c5ccccn5)CC4)c32)cc1.O=C(O)C(F)(F)F (centres unmarked),-26.4%
14,CCOc1ccc(Br)cc1S(=O)(=O)Nc1cccnc1,11.7%
15,N#C/C(=C\C=C\c1ccccc1)c1nc(-c2ccc3c(c2)OCO3)cs1,1.07%
16,C=CCn1cc(C(=O)N2CCN(CC)CC2)c(=O)c2cc(S(=O)(=O)N(CC)CC)ccc21,8.84%
17,Cc1cc(=O)oc2cc(OS(C)(=O)=O)ccc12,-10.3%
18,CCOc1ccccc1C(=O)NCC(=O)OCc1csc(CC(=O)Nc2ccc(C)cc2)n1,2.59%
